We go through 91 molecules from PubChem BioAssay AID463173 (ICCB-Longwood Screening Facility, Harvard Medical School, 2010).

The campaign covered roughly 52,000 compounds. About 1,700 (3.3%) were called active. Cut-off read from the data, not from the text of the source: active = survival mostly below about 52% (no sharp cut-off); inactive = mostly above about 56%. The list shows a part of the results.

This assay has as its system Wild type. Nature of the assay: S. aureus survival, RN4220 and DeltatarO strains – OD600, teichoic acid synthesis inhibitors, primary screen (AID 463173). The note with it: S. aureus RN4220 wild type/DeltatarO growth, OD600, 18 h, stronger effect = lower value, screened at 18.75 µg/mL (by protocol).
Regarding `Cc1ccc2c(Sc3ccc(Cl)cc3)c(C(=O)N3CCC(C)CC3)[nH]c2c1`, the survival was inactive: 73%.
For `COc1ccc(CNS(=O)(=O)c2cnc(N)nc2)c(OC)c1` the value was inactive: 59%.
For `CCC1CN(C(=O)N2CCC(C(=O)NCCN(CC)CC)CC2)c2cc(C)ccc2O1` (stereo unspecified) the value was inactive: 86%; for `CCc1nc2ccccc2n1CCCCOc1ccc(C)cc1`, active: 1%; for `CC(=O)c1ccc(NC(=O)Cn2cc(S(=O)(=O)Cc3cccc(Cl)c3)c3ccccc32)cc1`, inactive: 132%.
As for `N#CCn1c(Cc2ccccc2)nc2ccccc2c1=O`, the survival was inactive: 109%.
For `CCOc1cc(CNC(=O)c2sc3ncnc(N(C)C4CCCCC4)c3c2C)ccc1OC` the value was inactive: 79%; for `CCN(C(=O)c1cc2c(s1)-c1c(C)cccc1OC2)c1ccccc1F`, inactive: 96%.
For `CCc1cc(=O)oc2c3c(c(Cl)cc12)OCN(Cc1cccc(OC)c1)C3` the value was inactive: 96%.
In the case of `CCC(=O)N1CCc2cc(Br)cc(S(=O)(=O)Nc3ccc(C)cc3C)c21`, the survival was inactive: 87%.
As to `Cc1ccc(C(=O)ON2C(=O)c3ccccc3C2=O)cc1`, the survival was inactive: 111%.
Regarding `COc1ccc(CC(=O)N2CCc3cc(OC)c(OC)cc3C2COc2ccc(OC)cc2)cc1` (stereo unspecified), the survival was inactive: 131%.
As for `CC(C)Oc1ccc(CNC(=O)CCCN2C(=O)c3cccnc3Oc3ccc(Cl)cc32)cc1`, the survival is inactive: 69%.
For `c1ccc(-n2ncc3c(N4CCOCC4)ncnc32)cc1` the value was inactive: 105%.
For `CCOC(=O)c1scc(-c2ccccc2)c1S(=O)(=O)Nc1cc(OC)cc(OC)c1` the value was inactive: 71%; for `Cc1ccccc1OCC(=O)N1CCOCC1`, inactive: 108%.
Take `O=C(O)C1C2C=CC(C2)C1C(=O)NCC1CCCO1` (stereo unspecified): the survival was inactive: 106%.
For `COc1ccc(-n2nc(C(=O)N(C)c3cc(C)ccc3C)c3c4ccccc4n(C)c3c2=O)cc1Cl` the value was inactive: 81%; for `O=C(Cn1cc(SCc2c(F)cccc2Cl)c2ccccc21)N1CCCCCC1`, inactive: 88%; for `Cc1ccc(C)c(NC(=O)c2cnn(-c3cccc(F)c3)c2C2CCN(C(=O)OC(C)(C)C)CC2)c1`, inactive: 124%.
With `CCOc1ccc(NS(=O)(=O)c2ccc(-c3cc(C)no3)s2)cc1`, the survival was inactive: 76%.
For `CCN(c1ccccc1)S(=O)(=O)c1ccc(NC(=O)c2cc(=O)c3cc(C)cc(C)c3o2)cc1`, the survival was inactive: 83%.
With `Cc1c(Cl)cccc1NC(=O)c1cnc2sc(N3CCOCC3)nn2c1=O`, the survival was inactive: 124%.
For `Cc1nc2c(Cl)cc(Cl)cc2[nH]1` the value was inactive: 119%; for `CCC(=O)N1c2ccccc2CC1C(=O)NCCc1ccccc1C` (stereo unspecified), inactive: 70%.
For `O=C(Nc1ccc2nn(-c3ccccc3)nc2c1)c1cc2ccccc2o1`, the survival was inactive: 80%.
In the case of `O=C(CSc1cn(CC(=O)N2CCOCC2)c2ccccc12)Nc1ccccc1F`, the survival is inactive: 97%.
In the case of `Cc1ccc(S(=O)(=O)Nc2ccc3c(c2)CCCN3C(=O)c2cccs2)cc1`, the survival was inactive: 63%.
For `Cc1cc2ccccc2n1CCNC(=O)c1cccc(Br)c1` the value was inactive: 70%.
Regarding `c1ccc(CSc2n[nH]c(-c3ccncc3)n2)cc1`, the survival is inactive: 110%.
As for `CC(=O)N1Cc2ccccc2C(C)CC12CCCC2` (stereo unspecified), the survival is inactive: 110%.
As to `COc1ccc2oc(=O)cc(CN3CCN(Cc4ccccc4)CC3)c2c1`, the survival was inactive: 93%.
For the molecule `COc1ccc(OC)c(CCNC(=O)CCCn2c(=O)c3cccn3c3ccccc32)c1`, the survival was inactive: 74%.
Regarding `O=C(c1ccc2c(c1)N(Cc1ccc(Cl)cc1)C(=O)c1ccccc1S2=O)N1CCOCC1` (stereo unspecified), the survival is inactive: 83%.
Take `CCOc1ccccc1N1CC(c2nc3ccccc3n2CCOc2ccccc2)CC1=O` (stereo unspecified): the survival was inactive: 31%.
For `CCc1cccc(NC(=O)Cn2c(=O)ccc3cc(S(=O)(=O)N4CCC(C)CC4)ccc32)c1` the value was inactive: 129%; for `CCc1ccc(CNc2ncnc3c2nc2n3CCCC2)cc1`, inactive: 71%; for `Cc1cc(C)c2c(CC(=O)N3CCN(c4cccc(Cl)c4)CC3)coc2c1`, inactive: 93%.
Regarding `CC1CCc2nc3ncn(Cc4ccccc4C#N)c(=O)c3cc2C1` (stereo unspecified), the survival is inactive: 71%.
For `COc1cccc(N2CCN(C(=O)c3ccc(Cn4c(=O)[nH]c5cc(OC)c(OC)cc5c4=O)cc3)CC2)c1` the value was inactive: 75%; for `COc1ccc(C(CNC(=O)c2oc3ccc(Cl)cc3c2C)N2CCCCC2)cc1` (stereo unspecified), inactive: 109%.
For `CC(NS(=O)(=O)c1ccccc1)C(=O)NCc1ccc2c(c1)OCO2` (stereo unspecified) the value was inactive: 116%; for `CCCC(=O)N(c1ccc2oc3c(c2c1)CCCC3)S(=O)(=O)c1cc(C)ccc1C`, inactive: 61%.
For `O=C1CC(c2nc3ccccc3[nH]2)CN1c1cccc(Cl)c1` (stereo unspecified) the value was inactive: 89%.
Turning to `Nc1nnc2c(n1)[nH]c1ccccc12`, the survival is inactive: 75%.
For the molecule `COc1cccc(CSc2nc3cc(C(=O)NC4CCCC4)ccc3c(=O)n2Cc2ccccc2)c1`, the survival was inactive: 59%.
For `COC(=O)c1ccc(CSc2nc3c([nH]c4ccccc43)c(=O)n2-c2ccc(Cl)cc2)o1` the value was inactive: 121%.
For `CCCCNc1nc2c(c(=O)n(Cc3ccc(Cl)cc3)c(=O)n2C)n1C` the value was inactive: 70%; for `COc1ccc(CN2CCN(Cc3cc(=O)oc4cc(C)ccc34)CC2)c(OC)c1OC`, inactive: 119%.
For `COc1ccc(N2CCN(CCN3CCCCC3)CC2)cc1` the value was inactive: 119%; for `O=C(CSc1nc2ccccc2n1Cc1ccccc1)N1CCN(c2ccc(F)cc2)CC1`, inactive: 78%.
In the case of `COc1ccc(-n2cc(C(=O)NCc3ccccc3)c3ccccc3c2=O)cc1`, the survival was inactive: 85%.
For `O=C(NCCc1nc2ccccc2n1Cc1ccc(F)cc1)c1ccco1` the value was inactive: 81%.
For the molecule `COc1ccc(CNC(=O)c2ccc(CS(=O)(=O)c3ccccc3OC)o2)cc1`, the survival is inactive: 76%.
`CCOc1ccc(CCNC(=O)Cn2nc(-c3ccc(C)cc3)ccc2=O)cc1OCC`: the survival was inactive: 68%.
In the case of `Cc1ccc(C)c(-c2[nH]c3c(c2-c2c(-n4cccc4)n(C)c(=O)[nH]c2=O)c(=O)[nH]c(=O)n3C)c1`, the survival is inactive: 88%.
For `CCN(CC)S(=O)(=O)c1ccc2c(c1)N(CC(=O)N1CCN(c3ccc(F)cc3)CC1)C(=O)CO2`, the survival was inactive: 110%.
For `Cc1ccc(-c2nc(CCNC(=O)C(=O)Nc3ccc(C)cc3C)cs2)cc1` the value was inactive: 53%.
With `COc1cc(CN2CCN(S(=O)(=O)c3ccccc3)CC2)cc(OC)c1O`, the survival was inactive: 71%.
On to `CCc1ccccc1NC(=O)C1=C(C)C(=O)OC12CCCCCC2`, for which the survival is inactive: 49%.
As for `O=C(CC1COc2ccccc2O1)NCc1ccccc1` (stereo unspecified), the survival was inactive: 105%.
Turning to `O=C(CNS(=O)(=O)c1cccs1)N1CCN(c2cccc(C(F)(F)F)c2)CC1`, the survival was inactive: 89%.
For `COc1cc(NC(=O)CSc2ncc(S(=O)(=O)c3ccc(Br)cc3)c(=O)[nH]2)cc(OC)c1` the value was inactive: 84%; for `Cc1c2cnn(CC(=O)NCCc3ccccc3)c(=O)c2c(C)n1Cc1ccccc1`, inactive: 96%.
For `CCC(C)(C)n1nnnc1C(c1cccnc1)N1CCCC(C)C1` (stereo unspecified) the value was inactive: 121%; for `Cc1cccc(NC(=O)C(=O)NCC(c2ccc3c(c2)OCO3)N2CCN(C)CC2)c1C` (stereo unspecified), inactive: 71%.
Regarding `COc1ccc(OC)c(NC(=O)c2cccn2-c2nnc(N3CCCCC3)s2)c1`, the survival was inactive: 59%.
Regarding `COc1ccc(CNC(=O)c2cc3c(=O)oc4ccc(C)cc4c3s2)c(OC)c1`, the survival was inactive: 85%.
For `O=C(O)C1CCN(C(=O)c2cccs2)CC1` the value was inactive: 109%; for `Fc1ccc(-c2noc3ncnc(NC4CCCCC4)c23)cc1`, inactive: 76%.
For `Cc1cc(Nc2cccc(Cl)c2)nc2ccc(NC(=O)Cc3cccc(C(F)(F)F)c3)cc12` the value was inactive: 75%; for `Cc1cccc(N2CCN(C(=O)CCCCn3c(=O)[nH]c4ccsc4c3=O)CC2)c1C`, inactive: 50%.
For `COc1ccc(Cn2c(=O)c3oc4ccccc4c3n(Cc3ccc(F)cc3)c2=O)cc1` the value was inactive: 91%.
In the case of `COc1cc(C2CC(=O)Nc3cc4c(cc32)OCCO4)cc(Br)c1OC` (stereo unspecified), the survival is inactive: 93%.
For `CCN(CC)S(=O)(=O)c1ccc2oc(C(=O)N(C)Cc3ccccc3)c(C)c2c1` the value was inactive: 54%; for `CCCCOc1cccc(C(=O)N(Cc2sccc2C)C2CCS(=O)(=O)C2)c1` (stereo unspecified), inactive: 90%; for `CCCC(=O)N1CCCC(c2nc3c(nnn3Cc3ccccc3)c(=O)[nH]2)C1` (stereo unspecified), inactive: 106%.
For `O=C(NCCCc1ccccc1)C1CCN(C(=O)N2CCOc3ccc(Cl)cc32)CC1` the value was inactive: 85%.
Regarding `CCOc1ccccc1NC(=O)CCn1nc(C)c(S(=O)(=O)N2CCCCC2)c1C`, the survival was inactive: 76%.
For `COc1ccc(C2C=C(c3ccccc3)Nc3nc(NC(=O)/C=C/c4ccccc4)nn32)cc1` (stereo unspecified) the value was inactive: 74%; for `Cn1ccc2c(OCC(=O)Nc3cc(C(F)(F)F)ccc3Cl)cccc2c1=O`, inactive: 75%; for `CCN(CC)S(=O)(=O)c1ccc2c(c1)c(=O)c(C(=O)N1CCN(c3ccc(F)cc3)CC1)cn2C`, inactive: 132%.
On to `COC(=O)CCN(c1ccccc1)S(=O)(=O)c1cc(-c2cc(C)no2)ccc1OC`, for which the survival was inactive: 90%.
For `CCN1CCSc2ccc(C(=O)NCc3ccc(OC)cc3)cc21` the value was inactive: 87%; for `CC(C(=O)N1CCCCC1)N(c1ccccc1)S(C)(=O)=O` (stereo unspecified), inactive: 99%; for `O=C(Nc1ccccc1)c1cc2sccc2n1Cc1ccccc1`, inactive: 132%.
`O=C(Cn1ncc2c3ccccc3n(Cc3cccc(Cl)c3)c2c1=O)NC1CCCCCC1`: the survival was inactive: 125%.
For `CC(=O)N1CCc2cc(S(=O)(=O)CCC(=O)NCc3ccc(Cl)cc3)ccc21` the value was inactive: 68%; for `CCc1ccc(NC(=O)CSC2=Nc3ccccc3C3=NC(CC(=O)NCc4ccccc4)C(=O)N23)cc1` (stereo unspecified), inactive: 91%.
`CS(=O)(=O)N1CCC(N2CCN(Cc3ccccc3)C(=O)C2=O)CC1`: the survival was inactive: 77%.
For `COC(=O)c1sc(N)c(C#N)c1C` the value was inactive: 93%.
